According to the supplement of paper PMC3334620:
The full ranking holds about 33,000 sequences; the median of “E-score (-0.5 to 0.5)” is about -0.013, and the highest 2% start at about 0.3. The list shows a part of the results.

What follows are sequences tested against T1, Msn1 (UniProt P22148) (assay: PBM E-score (8-mer binding enrichment) (E-score (-0.5 to 0.5)); higher = stronger / more preferred TF binding; most listed sequences are background and not binding sites). Settings: protein concentration: 200 nM; construct: GST-full length.
T1 sequence: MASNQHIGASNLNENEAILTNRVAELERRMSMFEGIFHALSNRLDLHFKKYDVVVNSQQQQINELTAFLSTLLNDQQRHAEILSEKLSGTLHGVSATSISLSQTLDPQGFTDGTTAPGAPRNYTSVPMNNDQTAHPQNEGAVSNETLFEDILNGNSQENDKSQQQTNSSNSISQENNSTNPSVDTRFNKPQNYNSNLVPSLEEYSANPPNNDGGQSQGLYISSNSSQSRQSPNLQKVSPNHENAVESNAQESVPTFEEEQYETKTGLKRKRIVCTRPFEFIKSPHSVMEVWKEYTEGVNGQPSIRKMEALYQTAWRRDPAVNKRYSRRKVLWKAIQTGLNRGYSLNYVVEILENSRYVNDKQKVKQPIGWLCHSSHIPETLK
Method: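 Universal 'all 10-mer' protein binding microarrays (Agilent AMADID 015681) probed with GST-tagged S. cerevisiae TFs (full-length or DBD) made by in vitro transcription/translation (PURExpress), about 100-200 nM. Bound TF was detected with fluorescent anti-GST. Each ungapped 8-mer (which stands for itself and its reverse complement) is scored by the PBM enrichment score (E-score), a modified Wilcoxon-Mann-Whitney statistic from -0.5 to +0.5, computed with the Universal PBM Analysis Suite. Scale: above 0.35 generally sequence-specific binding.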

First: TACCCCCA
Second: AGCCTTAC
The “PBM E-score” value of the first is higher: -0.27 for the first, -0.28 for the second.

Going from CGTGCTGA to CACCCAAG, the “PBM E-score” value rises from -0.181 to -0.175.

Compared with GAGAACTA, TCATAGCA is lower in “PBM E-score” value: -0.0426 for the first, -0.0556 for the second.

Going from CAAGATCC to CCGACGAG, the “PBM E-score” value falls from 0.0979 to 0.0312.

First: CGGGGCAG
Second: CTTGAATC
The “PBM E-score” value of the first is higher: -0.0385 for the first, -0.0517 for the second.

Going from CTGGAGGA to TGCGGTAA, the “PBM E-score” value rises from -0.158 to 0.0705.

Compared with CCTATGCC, CACGGCCA is lower in “PBM E-score” value: -0.163 for the first, -0.165 for the second.

First: GGAGGGGA
Second: GCCAACAA
The “PBM E-score” value of the first is lower: -0.0779 for the first, 6e-05 for the second.

First: CCAGCAAG
Second: ACCGGTCC
The “PBM E-score” value of the first is higher: 0.0683 for the first, -0.139 for the second.

Going from GACTAACA to CCTCTGTA, the “PBM E-score” value falls from 0.248 to -0.0291.

Compared with AGCAGACC, AAGTCGTG is higher in “PBM E-score” value: -0.0268 for the first, 0.156 for the second.

First: GAGGTAGC
Second: CGGTCACA
The “PBM E-score” value of the first is lower: -0.219 for the first, 0.019 for the second.

Compared with ACAAAACG, AATAGTGT is lower in “PBM E-score” value: 0.237 for the first, 0.172 for the second.

Going from CCTAAACA to ATATCCAA, the “PBM E-score” value rises from 0.0191 to 0.103.

Compared with AATTGTTC, TAGTCTAA is lower in “PBM E-score” value: 0.245 for the first, 0.0219 for the second.

First: CCGAGCGC
Second: TTCTCCAA
The “PBM E-score” value of the first is higher: 0.0676 for the first, -0.0782 for the second.

First: GCAAGGCC
Second: CGCTAACG
The “PBM E-score” value of the first is lower: -0.22 for the first, 0.13 for the second.

Going from GCAAGTAC to AATCGATC, the “PBM E-score” value falls from 0.0709 to 0.063.

Compared with GAAAGGGC, AAGACAAG is higher in “PBM E-score” value: -0.141 for the first, 0.343 for the second.

First: CGTGGGTA
Second: CTTGTCAC
The “PBM E-score” value of the first is lower: -0.124 for the first, 0.296 for the second.

First: AGATGTGG
Second: AGCATGAC
The “PBM E-score” value of the first is higher: 0.0384 for the first, -0.217 for the second.

First: CTGAGTCC
Second: CACACTGA
The “PBM E-score” value of the first is higher: 0.125 for the first, -6e-05 for the second.

Compared with GTCGCCCA, ATATAGGG is lower in “PBM E-score” value: -0.147 for the first, -0.167 for the second.

First: AACCCGCC
Second: GGGAGACC
The “PBM E-score” value of the first is higher: -0.177 for the first, -0.362 for the second.

First: GTGATGTA
Second: GTACAGAA
The “PBM E-score” value of the first is higher: 0.182 for the first, 0.105 for the second.

Going from CTCACGCC to GGTTAAAA, the “PBM E-score” value rises from -0.209 to 0.047.

Going from TGCCTTAA to CTACTACC, the “PBM E-score” value rises from -0.283 to -0.0077.

Going from ACACGTAA to GCAGAGAA, the “PBM E-score” value falls from 0.0612 to 0.0322.

Compared with GCCGGTCC, CGGCTCAC is higher in “PBM E-score” value: -0.233 for the first, -0.118 for the second.

Compared with AATGGAAA, CCGGGGAA is lower in “PBM E-score” value: -0.0531 for the first, -0.149 for the second.

Going from CGCGAGCC to AAGGGCAT, the “PBM E-score” value falls from 0.057 to -0.00892.

Compared with GTCTCAAC, AGTCCGAT is higher in “PBM E-score” value: 0.136 for the first, 0.224 for the second.

Going from AATCACAA to GATTATAA, the “PBM E-score” value rises from -0.159 to 0.116.

Going from ACTGGTCA to ATTGAGAG, the “PBM E-score” value falls from -0.0482 to -0.0651.

Going from AGCGGTAC to AAAGGATA, the “PBM E-score” value rises from -0.0536 to 0.21.

Going from AATCCCCT to AATTAGTC, the “PBM E-score” value rises from -0.234 to 0.272.

Going from GCCCAACA to CAGTACAG, the “PBM E-score” value rises from -0.192 to 0.0817.

Going from CAGGCTTC to CAGTGCGA, the “PBM E-score” value falls from -0.074 to -0.154.

Compared with CCGAAGCC, AGCTGATG is higher in “PBM E-score” value: -0.0272 for the first, 0.0519 for the second.

Compared with CCGGACTC, CAGTAGGG is lower in “PBM E-score” value: 0.188 for the first, -0.235 for the second.

Compared with ACGTCCCC, AGTGTGAC is higher in “PBM E-score” value: -0.0571 for the first, -0.0163 for the second.

Compared with ATAGTCGG, GGCGCGGA is lower in “PBM E-score” value: -0.176 for the first, -0.198 for the second.

First: AGGGTACG
Second: ATCCTAGA
The “PBM E-score” value of the first is lower: -0.183 for the first, -0.0654 for the second.

First: ACAGTAGA
Second: AAGGCCTT
The “PBM E-score” value of the first is higher: 0.00665 for the first, -0.0741 for the second.

First: GCATCCAA
Second: ATGCGACC
The “PBM E-score” value of the first is lower: -0.225 for the first, 0.106 for the second.

Going from CGACTACC to CTTGTTAC, the “PBM E-score” value rises from -0.096 to -0.0242.

Compared with ATGGTTAA, AGCAAGTG is lower in “PBM E-score” value: -0.0435 for the first, -0.101 for the second.

Compared with CATTCGGG, ATTGGAGG is lower in “PBM E-score” value: -0.0321 for the first, -0.2 for the second.

Compared with CCGTCTCA, GCGCGTCA is higher in “PBM E-score” value: -0.0674 for the first, -0.0313 for the second.

Going from ACTAGCTC to CATGAAGG, the “PBM E-score” value rises from -0.0442 to -0.0363.

First: AATTTATA
Second: CCGTCGCA
The “PBM E-score” value of the first is higher: 0.233 for the first, -0.0683 for the second.

First: CAATACGG
Second: ACGCGACT
The “PBM E-score” value of the first is higher: -0.0563 for the first, -0.206 for the second.

Compared with GCGTGGTA, ACGAGGAA is higher in “PBM E-score” value: 0.00084 for the first, 0.101 for the second.

Going from GAATAAAC to ATGCCAAT, the “PBM E-score” value falls from 0.134 to -0.104.

First: AGCGTCCC
Second: ATCACCTC
The “PBM E-score” value of the first is higher: -0.136 for the first, -0.145 for the second.

Going from GTAGGGGA to CATCTTAG, the “PBM E-score” value rises from -0.237 to 0.107.

Going from GTTTACCA to ATCGATAG, the “PBM E-score” value rises from 0.0626 to 0.1.

First: ACTCCTGC
Second: AAGCAGAG
The “PBM E-score” value of the first is lower: -0.23 for the first, -0.0134 for the second.

Compared with ACGCGACA, GCACTTTA is lower in “PBM E-score” value: 0.256 for the first, 0.097 for the second.

Compared with ATCTCGGG, GCAGACCA is lower in “PBM E-score” value: 0.0394 for the first, -0.0683 for the second.

Compared with CGCAAAAA, CAAGAATC is lower in “PBM E-score” value: 0.173 for the first, 0.153 for the second.

Compared with TGCTGACA, ATCAACGA is higher in “PBM E-score” value: 0.125 for the first, 0.14 for the second.

First: TATAATCA
Second: CAGGACAC
The “PBM E-score” value of the first is lower: 0.169 for the first, 0.407 for the second.

First: AAATATAT
Second: AACAACCG
The “PBM E-score” value of the first is higher: 0.306 for the first, 0.0783 for the second.

First: GCACGAAA
Second: GCGCTGTA
The “PBM E-score” value of the first is higher: 0.126 for the first, 0.012 for the second.

Compared with ATTCGTGA, ACATTGCG is higher in “PBM E-score” value: 0.0237 for the first, 0.201 for the second.

Compared with AACACCCA, ATCATATC is higher in “PBM E-score” value: -0.147 for the first, 0.233 for the second.

First: GACAATGA
Second: GAGTGCCA
The “PBM E-score” value of the first is higher: 0.169 for the first, -0.239 for the second.

Going from ATAGAGAT to GCAGCCGA, the “PBM E-score” value falls from 0.0237 to -0.108.

Going from GCCAAGTA to CGCTACTA, the “PBM E-score” value rises from -0.124 to -0.0231.

Going from GGGGATAA to AAAGCAAC, the “PBM E-score” value rises from -0.0973 to 0.103.

Going from AACAGTCG to TCTAGCCA, the “PBM E-score” value falls from -0.033 to -0.0361.

Compared with CCCTTCGC, ACTCCGGG is higher in “PBM E-score” value: -0.185 for the first, 0.0267 for the second.

First: AAATGTAT
Second: GGTCTTCA
The “PBM E-score” value of the first is higher: 0.28 for the first, -0.182 for the second.

Going from CAAGCCGA to AAGCACAG, the “PBM E-score” value falls from 0.107 to 0.0631.

Going from AACATTAT to CAGATGTA, the “PBM E-score” value falls from 0.104 to -0.0817.

Compared with ACCCCACT, CATATAAC is higher in “PBM E-score” value: -0.126 for the first, 0.147 for the second.

First: CGGGTTCA
Second: ACAGTATG
The “PBM E-score” value of the first is lower: -0.02 for the first, 0.147 for the second.

First: AGTCCACA
Second: CACTTCCA
The “PBM E-score” value of the first is higher: 0.17 for the first, -0.0388 for the second.

First: AGCGCCTC
Second: AGTCGTGG
The “PBM E-score” value of the first is lower: -0.194 for the first, 0.0444 for the second.

Going from GAACAAAC to ATACACAC, the “PBM E-score” value falls from 0.181 to 0.0243.

Compared with AACATCAC, GGAATCGA is lower in “PBM E-score” value: 0.0812 for the first, -0.0979 for the second.

Compared with TTACAGAA, GTATCACA is higher in “PBM E-score” value: 0.0602 for the first, 0.109 for the second.

Compared with CACGGTTA, CAAATTCC is higher in “PBM E-score” value: 0.0138 for the first, 0.265 for the second.

Compared with CCATAGAA, CAAAGGGA is lower in “PBM E-score” value: -0.0137 for the first, -0.0316 for the second.

Compared with TGCGTTAA, AGTACCAA is higher in “PBM E-score” value: -0.0213 for the first, 0.175 for the second.
